Our source for the binding values is paper PMC4813553.

Amino acid sequences for entries named in this document (tags omitted). Residues count along the entry.
UniProt Q99962, residues 290-349: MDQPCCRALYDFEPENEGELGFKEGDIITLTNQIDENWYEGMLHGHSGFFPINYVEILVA
UniProt Q9Z0R4: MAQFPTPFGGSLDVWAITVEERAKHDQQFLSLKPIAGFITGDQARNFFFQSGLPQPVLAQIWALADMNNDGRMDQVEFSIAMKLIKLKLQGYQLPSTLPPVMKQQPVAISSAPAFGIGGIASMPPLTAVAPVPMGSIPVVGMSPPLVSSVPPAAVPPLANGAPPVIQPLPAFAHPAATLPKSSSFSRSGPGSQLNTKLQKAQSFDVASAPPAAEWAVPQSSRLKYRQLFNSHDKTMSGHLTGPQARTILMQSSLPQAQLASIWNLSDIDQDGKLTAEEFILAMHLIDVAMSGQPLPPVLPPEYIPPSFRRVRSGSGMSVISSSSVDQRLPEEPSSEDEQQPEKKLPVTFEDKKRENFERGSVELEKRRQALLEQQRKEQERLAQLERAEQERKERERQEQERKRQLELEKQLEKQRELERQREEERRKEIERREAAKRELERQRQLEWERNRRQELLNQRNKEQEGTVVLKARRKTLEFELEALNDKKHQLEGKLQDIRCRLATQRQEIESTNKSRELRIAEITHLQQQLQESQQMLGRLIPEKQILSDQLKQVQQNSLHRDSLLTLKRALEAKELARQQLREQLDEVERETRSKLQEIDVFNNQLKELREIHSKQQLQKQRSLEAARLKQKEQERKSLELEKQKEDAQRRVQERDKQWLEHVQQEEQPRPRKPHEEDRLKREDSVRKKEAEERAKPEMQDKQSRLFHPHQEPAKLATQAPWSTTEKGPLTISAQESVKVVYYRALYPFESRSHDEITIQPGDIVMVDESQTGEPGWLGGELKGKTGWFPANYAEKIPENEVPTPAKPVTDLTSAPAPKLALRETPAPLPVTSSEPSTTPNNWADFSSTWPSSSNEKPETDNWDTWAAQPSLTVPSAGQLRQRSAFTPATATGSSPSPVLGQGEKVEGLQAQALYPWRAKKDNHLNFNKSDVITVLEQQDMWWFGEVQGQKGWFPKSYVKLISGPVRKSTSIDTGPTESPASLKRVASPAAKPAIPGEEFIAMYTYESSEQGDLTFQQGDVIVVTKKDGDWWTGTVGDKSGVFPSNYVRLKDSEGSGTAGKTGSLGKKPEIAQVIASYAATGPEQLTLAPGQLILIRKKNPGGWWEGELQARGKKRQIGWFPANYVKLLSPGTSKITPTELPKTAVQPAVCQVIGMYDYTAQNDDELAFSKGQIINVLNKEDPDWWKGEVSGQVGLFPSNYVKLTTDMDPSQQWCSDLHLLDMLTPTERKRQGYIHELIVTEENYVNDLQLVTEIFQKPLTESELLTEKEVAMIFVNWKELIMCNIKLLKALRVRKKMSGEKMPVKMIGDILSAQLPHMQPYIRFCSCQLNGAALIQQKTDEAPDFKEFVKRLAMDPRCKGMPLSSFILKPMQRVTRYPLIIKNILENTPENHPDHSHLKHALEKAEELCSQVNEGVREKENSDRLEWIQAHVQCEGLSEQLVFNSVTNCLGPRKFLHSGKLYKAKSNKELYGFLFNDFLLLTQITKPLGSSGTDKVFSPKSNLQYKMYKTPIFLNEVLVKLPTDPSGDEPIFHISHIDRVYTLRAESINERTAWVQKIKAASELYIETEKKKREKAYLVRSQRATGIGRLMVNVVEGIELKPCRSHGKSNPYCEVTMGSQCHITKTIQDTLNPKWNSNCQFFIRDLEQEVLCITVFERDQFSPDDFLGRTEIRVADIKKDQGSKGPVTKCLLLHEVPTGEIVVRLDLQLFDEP
UniProt Q62420: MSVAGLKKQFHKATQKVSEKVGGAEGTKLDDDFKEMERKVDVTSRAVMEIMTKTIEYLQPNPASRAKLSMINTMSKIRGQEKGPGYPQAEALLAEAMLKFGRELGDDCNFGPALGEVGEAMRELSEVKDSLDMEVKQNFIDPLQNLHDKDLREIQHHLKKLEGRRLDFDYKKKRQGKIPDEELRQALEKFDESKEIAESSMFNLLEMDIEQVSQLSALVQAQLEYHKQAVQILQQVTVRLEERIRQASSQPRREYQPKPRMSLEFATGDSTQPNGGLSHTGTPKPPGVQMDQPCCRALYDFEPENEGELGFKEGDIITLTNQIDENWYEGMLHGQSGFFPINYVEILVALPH

No constants are given. Whether binding was seen depends on the method and setting. Binding seen in cells or lysates may run through a third protein. Some entries that bind do so weakly or less than the wild type. For part of these data: Sequences can lack the tags named with a protein.

Experiment [1] concerns the target T1, SH3 domain of Amphiphysin II, GST fusion (UniProt O00499).
T1 sequence: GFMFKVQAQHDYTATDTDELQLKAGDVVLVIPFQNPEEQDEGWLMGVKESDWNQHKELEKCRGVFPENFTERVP
The experiment can be described thus: pull-down; GST-SH3 domains coupled to glutathione-Sepharose; columns loaded with a Triton X-100 extract of crude synaptosomal fraction (P2) from rat forebrain; bound proteins eluted with SDS and immunoblotted with anti-PRRT2 or anti-dynamin I; only the target purified. (In general: In western blotting, separated proteins are transferred to a membrane and probed.)

Experiment [2] has as its target SH3 domain of Endophilin 1, GST fusion (UniProt Q99962). The experiment is described as above.
In experiment [3] the target is Intersectin 1, endogenous in mouse brain (mouse (endogenous in mouse brain)) (UniProt Q9Z0R4). Kind of experiment: co-IP; anti-Intersectin 1 or anti-Endophilin 1 antibodies or control IgG on protein G Sepharose, incubated with total mouse brain lysate in 150 mM NaCl, 50 mM Tris-HCl pH 7.4, 2 mM EDTA, 1% Triton X-100; Western blot with anti-PRRT2.
The target of experiment [4] is Endophilin 1, endogenous in mouse brain (mouse (endogenous in mouse brain)) (UniProt Q62420). The experiment is described as above.

B1: Proline-rich transmembrane protein 2 (PRRT2), endogenous in rat forebrain synaptosomes (protein, UniProt D3ZFB6 1-344)
chain: MAASSSEVSEMKGVEDSSNTHSEGPRHSEEGMGPVQVVAENLDQPEALQSGPDTTAAPVDSGPKAELAPETTETPVETPETVQATDLSVNPGEDSKTCPSPKEACQEPASRPEVNREATAEQGAEQQSAAPPEPTSEQALQLNTQSDPQPTSQPPPKPPLQAEPPTQENPTTEVLTESTGEKQENGAVVPLQAGDGEEGPAPQPHSPPSTKTPPANGAPPRVLQKLVEEDRIGRAHGGHPGSPRGSLSRHPSSQLAGPGVEGGEGTQKPRDYIILAILSCFCPMWPVNIVAFAYAVMSRNSLQQGDVDGAQRLGRVAKLLSIVALVGGVLIIIASCVINLGVYK
Turning to B1, the binding entry in experiment [1] and in experiment [2] was “binds” in each case.

B2: Proline-rich transmembrane protein 2 (PRRT2), endogenous in mouse brain (protein, UniProt E9PUL5 1-346)
chain: MAASSSQVSEMKGVEDSSKTQTEGPRHSEEGLGPVQVVAEIPDQPEALQPGPGITAAPVDSGPKAELAPETTETPVETPETVQATDLSLNPEEGSKASPSPSPSEARQEPASKPDVNRETAAEEGSEPQSTAPPEPTSEPAFQINTQSDPQPTSQPPPKPPLQAEPPTQEDPTTEVLTESTGEKQENGAVVPLQAGDGEEGPAPQPHSPPSTKTPPANGAPPRVLQKLVEEDRIGRAHGGHPGSPRGSLSRHPSSQLAGPGVEGGEGTQKPRDYIILAILSCFCPMWPVNIVAFAYAVMSRNSLQQGDVDGAQRLGRVAKLLSIVALVGGVLIIIASCVINLGVYK
As for B2, the values for the binding result in experiment [3] and in experiment [4] were “binds” and “no binding”, respectively.

B3: Dynamin I, endogenous in rat forebrain synaptosomes (protein, UniProt P21575 1-864)
chain: MGNRGMEDLIPLVNRLQDAFSAIGQNADLDLPQIAVVGGQSAGKSSVLENFVGRDFLPRGSGIVTRRPLVLQLVNSTTEYAEFLHCKGKKFTDFEEVRLEIEAETDRVTGTNKGISPVPINLRVYSPHVLNLTLVDLPGMTKVPVGDQPPDIEFQIRDMLMQFVTKENCLILAVSPANSDLANSDALKIAKEVDPQGQRTIGVITKLDLMDEGTDARDVLENKLLPLRRGYIGVVNRSQKDIDGKKDITAALAAERKFFLSHPSYRHLADRMGTPYLQKVLNQQLTNHIRDTLPGLRNKLQSQLLSIEKEVDEYKNFRPDDPARKTKALLQMVQQFAVDFEKRIEGSGDQIDTYELSGGARINRIFHERFPFELVKMEFDEKELRREISYAIKNIHGIRTGLFTPDLAFEATVKKQVQKLKEPSIKCVDMVVSELTSTIRKCSEKLQQYPRLREEMERIVTTHIREREGRTKEQVMLLIDIELAYMNTNHEDFIGFANAQQRSNQMNKKKTSGNQDEILVIRKGWLTINNIGIMKGGSKEYWFVLTAENLSWYKDDEEKEKKYMLSVDNLKLRDVEKGFMSSKHIFALFNTEQRNVYKDYRQLELACETQEEVDSWKASFLRAGVYPERVGDKEKASETEENGSDSFMHSMDPQLERQVETIRNLVDSYMAIVNKTVRDLMPKTIMHLMINNTKEFIFSELLANLYSCGDQNTLMEESAEQAQRRDEMLRMYHALKEALSIIGDINTTTVSTPMPPPVDDSWLQVQSVPAGRRSPTSSPTPQRRAPAVPPARPGSRGPAPGPPPAGSALGGAPPVPSRPGASPDPFGPPPQVPSRPNRAPPGVPSRSGQASPSRPESPRPPFDL
On to B3, for which the binding entry in experiment [1] and in experiment [2] was “binds” each time.
